Assay results from the supplement of paper PMC3334620.
Whole data set: some 33,000 sequences, median “E-score (-0.5 to 0.5)” near -0.012, cut for the highest 2% near 0.27. Some of the results follow.

biological target: T1, Vhr1 (UniProt P40522); test: PBM E-score (8-mer binding enrichment) (E-score (-0.5 to 0.5)); higher = stronger / more preferred TF binding; most listed sequences are background and not binding sites; conditions: protein concentration: 200 nM; construct: GST-full length
T1 sequence: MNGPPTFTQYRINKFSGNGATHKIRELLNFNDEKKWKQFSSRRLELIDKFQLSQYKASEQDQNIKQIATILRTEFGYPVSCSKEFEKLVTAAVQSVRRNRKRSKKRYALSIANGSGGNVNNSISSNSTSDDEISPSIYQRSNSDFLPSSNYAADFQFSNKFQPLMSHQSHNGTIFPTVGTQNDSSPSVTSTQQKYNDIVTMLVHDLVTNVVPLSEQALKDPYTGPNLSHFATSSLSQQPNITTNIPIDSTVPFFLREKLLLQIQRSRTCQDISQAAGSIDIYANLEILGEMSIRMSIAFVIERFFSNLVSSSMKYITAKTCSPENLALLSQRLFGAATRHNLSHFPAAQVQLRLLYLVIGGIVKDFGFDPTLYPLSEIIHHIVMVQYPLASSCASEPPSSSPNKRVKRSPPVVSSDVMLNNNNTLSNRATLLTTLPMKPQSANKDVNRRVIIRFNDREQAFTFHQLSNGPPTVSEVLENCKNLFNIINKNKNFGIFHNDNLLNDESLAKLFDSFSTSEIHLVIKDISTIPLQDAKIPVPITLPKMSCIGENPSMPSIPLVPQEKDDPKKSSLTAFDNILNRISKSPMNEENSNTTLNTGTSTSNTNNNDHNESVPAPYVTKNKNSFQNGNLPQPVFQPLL
Outline: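 For each ungapped eight-base word taken together with its reverse complement, the Universal PBM Analysis Suite assigned an E-score. Binding data came from GST-tagged yeast transcription factors, applied at about 100-200 nM, on universal all-10-mer Agilent arrays made double-stranded by primer extension. Fluorescent anti-GST marked bound protein, and scans were normalised with masliner.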

Sequence | PBM E-score
GTAAGGAC | -0.0512
GTAACGGA | 0.0219
AAGAGCTT | -0.233
GTTTAAAC | -0.135
ACAGGACG | -0.0214
AACTGGAG | -0.16
AGGTCTGC | -0.0985
ATAGAAAC | -0.0561
AACGTATC | -0.0587
CCGGTACC | -0.0228
AGACTTCG | -0.0819
ACGCCTAA | -0.0505
ACCCCCAA | -0.0406
CGTGAGTC | 0.428
GCTACGGA | -0.128
CAACACGC | -0.0709
CGCCCATC | 0.178
CGATCTAG | -0.0972
ACTCCGAT | 0.1
ATGGGCTC | 0.272
AGACCTTG | -0.035
AAACCTCC | -0.168
AGTTCTGC | -0.039
ACTAATAA | 0.0661
CGCGTACG | 0.0931

Sequence | PBM E-score
AAGCACAC | 0.0247
ATCCCGGC | 0.0143
CTATCGGA | -0.237
CAGGCTGG | -0.0642
CTAATCCC | -0.0416
AAACAGCA | -0.0592
AACAAAGA | -0.125
CTGGAGTA | -0.0097
CTGTGCGA | -0.143
AAAGCGCG | -0.248
CTAGACCC | -0.12
ATTTCCGA | -0.0676
TGTTTCAA | -0.00182
GCAATATA | 0.11
AAGTCTGC | -0.241
ATCAGCGA | -0.0565
CTTATGGA | -0.12
GGTCATAC | 0.0467
GCCCCTCA | -0.0991
AACGTGAA | -0.0973
CGACACGC | 0.191
ATCGATCG | 0.0613
ATGATGGA | 0.156
AATAGCTC | -0.0193
ACCGGCTG | 0.229

Sequence | PBM E-score
CAAGCTTC | -0.235
ACGGAACA | 0.0435
CCAATAAC | 0.0537
CTTACTGC | 0.0765
GCGACGTA | 0.0109
ACCGCGAA | 0.0978
CATACCCC | 0.105
GTTATCAA | -0.02
GAGGCTCC | -0.11
TAAAGTTA | 0.003
CCGCGACC | 0.0903
AAATTGCC | -0.0786
ATGGCTCC | 0.325
CCCGGTCG | -0.0479
AGCTAGAA | -0.142
AGCTGAGA | -0.109
GGACGACC | -0.215
CAGCAACG | 0.116
AAACGTTC | -0.0943
AATCCTAG | -0.256
GCCTTGAA | -0.184
GCGGTTTA | 0.0642
ATGCGATA | -0.0117
ATGCGAGG | -0.0121
CCCGCAGA | -0.0495

Sequence | PBM E-score
AAAACCCC | -0.217
TCTACACA | 0.118
TCCCCCCA | -0.233
CAAATGAA | -0.0291
AGCCACGC | -0.0579
ATAGTTTG | 0.205
AAGTTCCA | -0.168
CAAGGGCC | -0.201
AGGAGTGG | 0.0494
CACTAGGC | 0.0119
CACCAAAA | 0.102
ACTACGGA | 0.117
AACACTGC | 0.0891
ATTCAAGC | -0.00045
TCTGGTCA | 0.0764
CAATCATA | 0.317
TAAGGGCA | -0.192
ACCAGGGC | -0.0996
ATCGGTAG | -0.0922
GATAAAAC | 0.112
TACCCGGA | 0.0286
CCGAGTCA | 0.451
CCAATGGC | -0.176
AGTCAGCC | 0.402
GGAAGACA | -0.00163

Sequence | PBM E-score
AATACCAT | 0.205
TAGTCATA | 0.356
AAAAGGTA | -0.158
ACTCCGAA | 0.116
ACTATTAG | 0.0582
CATGTAAA | -0.129
ATAAAGAA | -0.109
CTACCCCA | -0.0606
CTGATCTA | 0.088
AGCAGCGG | 0.0635
ACCGCTCT | -0.0964
CATGAATC | 0.31
AATCGTAA | -0.0173
CCAGCATC | 0.113
GAGACCGC | -0.236
CGCTTGTC | -0.0745
GTGCTGTA | 0.0582
GGACAACA | 0.135
ACCTTCGA | -0.0486
ACACGACT | 0.277
CATCGCAA | 0.097
GAACCTGA | 0.0239
CAGCTTAA | -0.0789
GGAAAGTA | -0.122
AACTGTGA | -0.00841

Sequence | PBM E-score
CCCGTCAG | -0.122
ACCCCTCA | 0.0263
TCACGGGA | 0.0145
AGATACAT | 0.186
TGACAAAA | -0.241
TGCGCCCA | -0.191
AACCAATC | 0.126
AAGCGAGC | -0.0812
TGGACCCA | -0.0213
GGACACCC | -0.163
GCAAGCGC | 0.0638
AAATGAGT | 0.204
ACGAAAGT | -0.0941
AACTTCAA | -0.245
ATAAAACC | 0.0132
CTACGCGA | -0.233
ATAAGAGA | 0.0968
GTGAAATA | -0.0751
ATACATAG | 0.108
CATGACAG | 0.115
GAGGCGCA | -0.0794
AAGTGCGC | 0.0126
GTATAAAC | 0.18
GGAGCCTA | -0.137
CATAAGAA | 0.0486

Sequence | PBM E-score
CTAATAGC | -0.068
AAATAGGC | -0.1
ATGTCAAG | -0.117
AGTATGGG | 0.133
GAAGACCC | -0.0779
TAAATGGA | -0.0943
CCCAAATA | -0.0748
AATTATAA | -0.106
TACCTTGA | 0.114
ATACCGAT | -0.0534
TAAGAAGA | -0.115
AAAGATGC | -0.193
ACCATACT | 0.24
CGACTCCC | 0.321
GCGAACCA | 0.0587
CCACGCAG | 0.079
ATGAAAGG | -0.0863
ATGCGATC | -0.0199
CATTAATC | 0.126
GGAGGTCA | -0.163
AGGACCAT | 0.029
GATCATAA | 0.0899
